Measured values: PubChem BioAssay AID1745853 (National Center for Advancing Translational Sciences (NCATS), 2022)
The other results are listed elsewhere or left out. These are further read-outs of the screen, such as a control signal, another cell line or another target. No call is given for them.

Columns and labels:
Experiment in all cases: Primary Screen for Target Class Profiling of Small Molecule Inhibitors of Methyltransferases
[1] = target: Glycine N-methyltransferase (Homo sapiens) (UniProt Q14749); conditions: purified enzyme, MTase-Glo SAH luminescence; measured here: GNMT inhibition; at 40 µM; stronger effect = lower value
Outline: (§1)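 Each enzyme was assayed with SAM and its substrate. SAH formation detected by MTase-Glo luminescence; single-point 40 uM screen[…].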

[2] = target: Guanidinoacetate N-methyltransferase (Homo sapiens) (UniProt Q14353); conditions: purified enzyme, MTase-Glo SAH luminescence; measured here: GAMT inhibition; at 40 µM; stronger effect = lower value
Outline: as §1

[3] = target: Histamine N-methyltransferase (Homo sapiens) (UniProt P50135); conditions: purified enzyme, MTase-Glo SAH luminescence; measured here: HNMT inhibition; at 40 µM; stronger effect = lower value
Outline: as §1

[4] = target: Nicotinamide N-methyltransferase (Homo sapiens) (UniProt P40261); conditions: purified enzyme, MTase-Glo SAH luminescence; measured here: NNMT inhibition; at 40 µM; stronger effect = lower value
Outline: as §1

[5] = target: Phenylethanolamine N-methyltransferase (Homo sapiens) (UniProt P11086); conditions: purified enzyme, MTase-Glo SAH luminescence; measured here: PNMT inhibition; at 40 µM; stronger effect = lower value
Outline: as §1
% is set by controls: 0 for no effect and ±100 for the full control effect.

Row | Structure (SMILES) | activity change, negative = inhibition [1] [%] | activity change, negative = inhibition [2] [%] | activity change, negative = inhibition [3] [%] | activity change, negative = inhibition [4] [%] | activity change, negative = inhibition [5] [%]
1 | N=S(=O)(O)Cc1noc2ccccc12 | -0.86 | 5.49 | -0.951 | -3.02 | 3.69
2 | COc1ccnc(CS(=O)c2nc3cc(OC(F)F)ccc3[nH]2)c1OC (configuration not stated) | -8.07 | – | -0.808 | – | –
3 | CCCn1c(=O)c2ccc(Cl)cc2n2c(=O)n(Cc3ccc(F)cc3)nc12 | 0.228 | 4.74 | 5.19 | -2.58 | 2.54
4 | CN1Cc2nc(OCc3ccc(F)cc3)ccc2OCC1=O | -8.35 | -4.02 | -1.51 | -11.4 | -14.2
5 | C[C@@H]1O[C@@H](O[C@H]2[C@H](OC(=O)[C@]34CCC(C)(C)C[C@H]3C3=CCC5[C@@]6(C)C[C@H](O)[C@H](O[C@@H]7O[C@H](CO)[C@@H](O[C@@H]8O[C@H](CO)[C@@H](O)[C@H](O)[C@H]8O)[C@H](O)[C@H]7O)[C@@](C)(CO)C6[C@H](O)C[C@@]5(C)[C@]3(C)C[C@H]4O)OC[C@H](O)[C@@H]2O)[C@H](O)[C@H](O)[C@H]1O[C@@H]1OC[C@@H](O)[C@H](O[C@@H]2OC[C@](O)(CO)[C@H]2O)[C@H]1O (some centres not stated) | -7 | -5.4 | 6.07 | -15.8 | -5.93
6 | Cc1ccc(NC(=O)CN(C)S(=O)(=O)c2ccc3[nH]c4c(c3c2)CCCC4)cc1F | 0.651 | 6.15 | 2.34 | 0.29 | 0.42
7 | O=C(c1ccc(OC2CCN(C(=O)C3CCCC3)CC2)nc1)N1CCOCC1 | 2.06 | -5.47 | -2.24 | -1.39 | -12.2
8 | O=C(C1CCCN([S+](=O)([O-])c2cccs2)C1)N1CCC(N2CCCC2=O)CC1 (configuration not stated) | -2.44 | -1.44 | 0.876 | -5.29 | -1.79
9 | O=C1CO[C@H]2CCN(CCCc3ccccc3)CC[C@@H]2N1c1ccccc1 | -5.6 | -1.73 | -5.49 | -9.86 | -1.58
10 | CCCn1c(=O)c2ccc(C(=O)NCC(C)C)cc2n2c(=O)n(CC(=O)Nc3ccc(CC)cc3)nc12 | 5.29 | 0 | 7.91 | -0.193 | 4.16
11 | Cc1c(Cl)cccc1S(=O)(=O)Nc1nc(NCCc2ccccc2)nc2c1CN(Cc1ccccc1)CC2 | -1.45 | -18.6 | 2.71 | -47.7 | -35.7
12 | CC(=O)N1CCN(c2nc3c(s2)CC(C(=O)NCc2ccc(C(C)C)cc2)CC3)CC1 (configuration not stated) | -3.85 | -1.48 | -0.723 | -9.13 | 2.96
13 | CCOCCCNc1nc2c(S(=O)(=O)c3ccccc3)nnn2c2ccccc12 | -2.36 | 4.21 | 3.16 | 4.36 | -3.91
14 | CCOC(=O)c1cc2n(n1)CC(C)(C(=O)NC1CCCCCC1)N(c1cc(C)ccc1C)C2=O (configuration not stated) | 8.3 | 1.48 | -11.6 | 6.93 | 6.7
15 | CCOC(=O)c1cc2n(n1)CC(C)(C(=O)NC1CCCC1)N(c1cc(C)ccc1OC)C2=O (configuration not stated) | 6.57 | 0 | 5.35 | 4.52 | 4.75
16 | CCN1/C(=C/C(C)=O)Sc2ccc(OC)cc21 | -11.7 | 8.8 | 5.42 | -21 | -0.375
17 | C[C@H]1c2cccc(O)c2C(O)=C2C(=O)[C@]3(O)C(O)=C(C(N)=O)C(=O)[C@@H](N(C)C)[C@@H]3[C@@H](O)[C@@H]21 | -22.5 | -1.51 | 1.93 | -9.3 | -2.77
18 | CC(C)C1(O[C@@H]2O[C@H](CO)[C@@H](O)[C@H](O)[C@H]2O)CC=C(CO)CC1 (some centres not stated) | -2.73 | -5.5 | 3.35 | -13.8 | -13.4
19 | COc1ccc(CNC(=O)O[C@H]2COCCN(c3nc4ccccc4o3)C2)cc1 | -9.87 | -8.85 | -6.23 | -15.8 | -9.21
20 | O=C(NOCC(O)CO)c1ccc(F)c(F)c1Nc1ccc(I)cc1F (configuration not stated) | -3.58 | 3.9 | 11.8 | -15.4 | 5.75
21 | CCOC(=O)c1cc2n(n1)CC(C)(C(=O)NCc1ccc(F)cc1)N(Cc1cccc(OC)c1)C2=O (configuration not stated) | -6.68 | 0.756 | -3.63 | -8.44 | -8.47
22 | O=C(NCCCc1ccccc1)C1CCN(c2cc(C(F)(F)F)ncn2)CC1 | -6.59 | -7.63 | -2.85 | -11.1 | -7.89
23 | O=C(c1ccc(F)cc1)N1CCN(c2nc3ncccc3o2)CC1 | -8.38 | -12.2 | -4.54 | -18.2 | -12.6
24 | COc1cccc(N2CCN(c3ccc4nnc(CCC(=O)NCCCOC(C)C)n4n3)CC2)c1 | 5.36 | 0 | -0.618 | 1.28 | 4.44
25 | OCC1(O)CCCN(Cc2cnc(NCc3ccccc3)nc2)C1 (configuration not stated) | 0.141 | 1.62 | 1.86 | -1.74 | 2.68
26 | Clc1ccccc1C1Nc2ccc3ccccc3c2C2C=CCC21 (configuration not stated) | 9.44 | -4.8 | -6.13 | -3.04 | -11.4
27 | O=C(Cn1ccc2cc(S(=O)(=O)N3CCCCC3)ccc21)N1CCCCC1 | 4.52 | 3.72 | 7.34 | 7.09 | 3.75
28 | CC(C)OCCCn1c(=O)c2ccccc2n2c(SCC(=O)Nc3ccc(Cl)cc3)nnc12 | -2.28 | 4.39 | 2.92 | -2 | -0.183
29 | Cc1ccc(C)c(Cn2nc3n(C(C)C)c(=O)c4ccc(C(=O)NC5CCCC5)cc4n3c2=O)c1 | -3.17 | -0.487 | 0.246 | -3.85 | -0.937
30 | CC(=O)Nc1c2n(c3ccc(F)cc13)CC(C)(C(=O)NCCC(C)C)N(C1CCCCC1)C2=O (configuration not stated) | -4.81 | 3.08 | 0.206 | -1.83 | -2.58
